79 compounds from the supplement of paper PMC6135742 can be followed below.

Where a name gives a salt, the structure may show the parent alone. ± gives the standard deviation of the averaged measurements. In all, about 2,600 compounds were measured (“total cell number (DAPI+ nuclei) relative to DMSO vehicle control”: median about -1.4, lowest 2% from about -23 on). Some of the results follow.

This experiment deals with jimpy (Plp1 jimpy) mouse iPSC-derived oligodendrocyte progenitor cells. Kind of experiment: total cell number (DAPI+ nuclei) relative to DMSO vehicle control (SDs above negative control mean); higher = more surviving cells. The following applies: 10 µM; 3 days.
The compound `CN(C)CCOc1ccc(/C(=C(/CCCl)c2ccccc2)c2ccccc2)cc1` [Toremifene Citrate] had a total cell number of -9.22.
The figure for `O=C(NCCO[N+](=O)[O-])c1cccnc1` [Nicorandil] is -1.29; for `Cc1ccc(Cl)c(Nc2ccccc2C(=O)O)c1Cl` [Meclofenamic acid sodium] it is 0.116.
The figure for `CC1=Nc2ccc(Cl)cc2S(=O)(=O)N1` [Diazoxide] is 1.43.
As to `Cc1cc(Nc2ncnc3ccc(-c4ccc(CNCCS(C)(=O)=O)o4)cc23)ccc1Oc1ccn2ncnc2c1` [HER2-Inhibitor-1], the total cell number was -8.63.
The value for `Oc1ccc(OCc2ccccc2)cc1` [Monobenzone] was -5.22; that for `C[C@H]1C[C@H]2[C@@H]3CCC4=CC(=O)C=C[C@]4(C)[C@@]3(F)[C@@H](O)C[C@]2(C)[C@@]1(O)C(=O)CO` [Betamethasone] was 4.38 ± 6.5; that for `CCCn1c(=O)c2c(ncn2C)n(CCC)c1=O` [1,3-Dipropyl-7-methylxanthine] was -0.342.
Compound `CNC(=O)[C@H](Cc1c[nH]c2ccccc12)NC(=O)[C@@H](CC(=O)NO)CC(C)C` [Ilomastat (GM6001, Galardin)] came in with a total cell number of -2.79.
Turning to `CN(C)c1ccc(/C=C2/C(=O)Nc3ccccc32)cc1`, the total cell number is -0.0867.
`Cc1nnc(NS(=O)(=O)c2ccc(N)cc2)s1` [Sulfamethizole] displayed a total cell number of 0.634.
As for `CCN1CCN(c2cc3c(cc2F)c(=O)c(C(=O)O)cn3C2CC2)CC1` [Enrofloxacin], the total cell number was -0.411.
Consider `FC(F)c1nc2ccccc2n1-c1nc(N2CCOCC2)nc(N2CCOCC2)n1`, for which the total cell number is -22.1.
In turn, `COc1cc(NS(C)(=O)=O)ccc1Nc1c2ccccc2nc2ccccc12` [Amsacrine hydrochloride] registered a total cell number of -12.2.
In turn, `Nc1nc(=O)c(Br)c(-c2ccccc2)[nH]1` [Bropirimine] gave a total cell number of -2.59.
Turning to `COc1ccccc1S(=O)(=O)Nc1ccc2c(c1)CN(C)C(=O)N2`, the total cell number was -15.3.
Regarding `O=C(O)CCCc1ccccc1` [Sodium Phenylbutyrate], the total cell number is -0.928.
With `CC(C)NCC(O)COc1ccc(CC(N)=O)cc1` (racemic) [(±)-Atenolol], the total cell number was -1.2.
With `Cc1cnc(NC(=O)C2=C(O)c3ccccc3S(=O)(=O)N2C)s1` [Meloxicam sodium], the total cell number is -1.34.
`Cc1cnc(NC(=O)C2=C(O)c3ccccc3S(=O)(=O)N2C)s1` [Meloxicam] returned a total cell number of -3.22.
For the compound `N=C(N)SCCc1c[nH]cn1` [Imetit dihydrobromide], the total cell number was -1.1.
The value for `CC1(C)O[C@@H]2C[C@H]3[C@@H]4CCC5=CC(=O)C=C[C@]5(C)[C@@]4(F)[C@@H](O)C[C@]3(C)[C@]2(C(=O)CO)O1` [Triamcinolone Acetonide] was 3.31; that for `C[C@@H]1C[C@H]2[C@@H]3CCC4=CC(=O)C=C[C@]4(C)[C@@]3(F)[C@@H](O)C[C@]2(C)[C@@]1(O)C(=O)CO` [Dexamethasone (DHAP)] was 6.45.
`OC1(c2ccc(Cl)c(C(F)(F)F)c2)CCN(CCCC(c2ccc(F)cc2)c2ccc(F)cc2)CC1` [Penfluridol] showed a total cell number of -16.2.
The figure for `NCC(O)c1ccc(O)c(O)c1` (racemic) [(±)-Norepinephrine (+)bitartrate] is 0.169.
On to `NC(CCCP(=O)(O)O)C(=O)O` (racemic) [(±)-2-Amino-5-phosphonopentanoic acid], for which the total cell number was 0.12.
In turn, `CCOC(=O)[C@H](CCc1ccccc1)N[C@H]1CCc2ccccc2N(CC(=O)O)C1=O` [Benazepril HCl] displayed a total cell number of 0.414.
On to `O=C(Nc1c[nH]nc1-c1nc2ccc(CN3CCOCC3)cc2[nH]1)NC1CC1`, for which the total cell number was -22.6.
On to `Cn1c(=O)c(-c2c(Cl)cccc2Cl)cc2cnc(Nc3ccc(N4CCOCC4)cc3)nc21`, for which the total cell number is -9.85.
With `Fc1ccc(C(OCCCc2cnc[nH]2)c2ccc(F)cc2)cc1`, the total cell number was -1.91.
As for `O=C1CCC(c2ccc(-n3ccnc3)cc2)=NN1` [Imazodan], the total cell number is -0.785.
`C=CCN1CCc2cc(O)c(O)cc2C(c2ccccc2)C1` (racemic) displayed a total cell number of -1.7.
The compound `COC1=C(OC)C(=O)C(CCCCCCCCCCO)=C(C)C1=O` [Idebenone] had a total cell number of 4.47.
Consider `Cc1cc2nc(NCCCO)n(CC(=O)c3cc(C(C)(C)C)c(O)c(C(C)(C)C)c3)c2cc1C`, for which the total cell number is -4.84.
As to `O=C(Nc1cccc2c(=O)cc(-c3nnn[nH]3)oc12)c1ccc(OCCCCc2ccccc2)cc1` [Pranlukast], the total cell number was -1.51.
Turning to `c1ccc2c(c1)CCC[C@H]2Nc1nc2ccccc2[nH]1` [NS8593 hydrochloride], the total cell number is -3.1.
`Cc1ccc(C(=O)Nc2ccc(CN3CCN(C)CC3)c(C(F)(F)F)c2)cc1C#Cc1cnc2cccnn12`: the total cell number is -17.8.
Regarding `CC(C)(C)NC[C@H](O)COc1nsnc1N1CCOCC1` [Timolol Maleate], the total cell number was -0.189.
Consider `CC(C)(C)NC[C@H](O)COc1nsnc1N1CCOCC1` [S(-)-Timolol maleate], for which the total cell number was -0.296.
`COc1cc(OC)c2c(=O)[nH]c(-c3cc(C)c(OCCO)c(C)c3)nc2c1` gave a total cell number of -2.09.
The figure for `Oc1ccccc1O` [Pyrocatechol] is -10.2; for `COc1cccc(NC(=O)/C=C/c2ccc(Cl)cc2)c1` it is -5.65; for `NCCOc1cc(C(=O)Nc2cc(OCCN)c3ccccc3n2)nc(C(=O)Nc2cc(OCCN)c3ccccc3n2)c1` [Pyridostatin trifluoroacetate salt] it is -6.18.
Regarding `CO/N=C(\C(=O)N[C@@H]1C(=O)N2C(C(=O)O)=C(CSc3nc(=O)c(O)nn3C)CS[C@H]12)c1csc(N)n1` [Ceftriaxone sodium], the total cell number was -1.57.
The compound `FC(F)(F)c1ccccc1-n1ccnc1` [1-[2-(Trifluoromethyl)phenyl]imidazole] displayed a total cell number of -1.32.
`CC(C)[C@H]1C(=O)N[C@@H](CCCNC(=N)N)C(=O)NCC(=O)N[C@@H](CC(=O)O)C(=O)N[C@H](Cc2ccccc2)C(=O)N1C` [Cilengitide]: the total cell number was found to be 1.19.
The figure for `COc1ccc(CCN(C)CCCC(C#N)(c2cc(OC)c(OC)c(OC)c2)C(C)C)cc1OC` (racemic) [(±)-Methoxyverapamil hydrochloride] is -2.78; for `O=C(c1cccc(Cl)c1F)N1CCN(Cc2cccc(Nc3nccs3)n2)CC1` it is -5.43.
Compound `Cc1scc2c1N(C(=O)CN1CCN(C)CC1)c1ccccc1NC2=O` [Telenzepine dihydrochloride] came in with a total cell number of -0.695.
For `CN(C)CCC(c1ccc(Cl)cc1)c1ccccn1` (single isomer, unassigned; (+)) [(+)-Chlorpheniramine maleate], the total cell number was -2.19.
The compound `Cn1c(=O)cc(N2CCC[C@@H](N)C2)n(Cc2cc(F)ccc2C#N)c1=O` [Trelagliptin] displayed a total cell number of -0.519.
The compound `CCCCCCCCCCCCCCCC(=O)OC[C@H](COP(=O)(O)OCCNC(=O)[C@H](C)NC(=O)CC[C@@H](NC(=O)[C@H](C)NC(=O)[C@@H](C)O[C@H]1[C@H](O)[C@@H](CO)OC(O)[C@@H]1NC(C)=O)C(N)=O)OC(=O)CCCCCCCCCCCCCCC` (some centres undefined) [Mifamurtide] displayed a total cell number of -0.249.
The value for `Cn1c(=O)c2nc[nH]c2n(C)c1=O` [Theophylline] was -0.885.
As for `C=C1c2cccc(O)c2C(=O)C2=C(O)[C@]3(O)C(=O)C(C(N)=O)=C(O)[C@@H](N(C)C)[C@@H]3[C@@H](O)[C@H]12` [Methacycline HCl], the total cell number was found to be 0.98.
`c1ccc(C2CN3CCSC3=N2)cc1` (centres undefined) [Tetramisole hydrochloride]: the total cell number was -0.22.
In turn, `CCCN[C@H]1CCc2nc(N)sc2C1` [Pramipexole] yielded a total cell number of 0.746.
Regarding `CCCN[C@H]1CCc2nc(N)sc2C1` [Pramipexole dihydrochloride], the total cell number was -0.809.
For `CC(C)(C)Cn1c(N)nc2ccc(-c3[nH]c(C(C)(C)C)nc3-c3ccc(F)cc3)nc21`, the total cell number was -11.9.
Consider `OC[C@H]1O[C@H]([S-])[C@H](O)[C@@H](O)[C@@H]1O.[Au+]` [Aurothioglucose], for which the total cell number was -2.94.
The value for `CCC(=O)N1CCN(C(=O)c2ccccc2)CC1` was -0.463.
`CCOC(=O)c1ccc(OC(=O)CCCCCNC(=N)N)cc1` [Gabexate Mesylate] returned a total cell number of 1.19.
On to `Cc1cc(=O)oc2cc(O)ccc12` [4-Methylumbelliferone (4-MU)], for which the total cell number came to 0.218.
On to `CNC(=O)c1cc2c(cn1)[nH]c1ccccc12` [N-Methyl-beta-carboline-3-carboxamide], for which the total cell number is -0.846.
`COc1cc(/C=C/C(=O)N2CCN(CC(=O)N3CCCC3)CC2)cc(OC)c1OC` [Cinepazide maleate] showed a total cell number of -0.73.
For the compound `O=C(Nc1ccc(OC(F)(F)F)cc1)c1sccc1NCc1ccnc2ccccc12`, the total cell number came out at 8.56.
Consider `CCCCCCCCCCCCCCCCCCOP(=O)([O-])OC1CC[N+](C)(C)CC1` [Perifosine], for which the total cell number was -0.796.
The compound `CC(=O)Nc1cccc2c1c(Sc1ccc(Cl)cc1)c(C)n2CC(=O)O` yielded a total cell number of -0.575.
`CCCNC(C)C(=O)Nc1ccccc1C` (centres undefined) [Prilocaine] showed a total cell number of -0.723.
Compound `CCCNC(C)C(=O)Nc1ccccc1C` (centres undefined) [Prilocaine hydrochloride] came in with a total cell number of -1.95.
On to `COc1ccc(CN(CCN(C)C)c2ccccn2)cc1` [Pyrilamine maleate], for which the total cell number was -0.472.
As to `Nc1ncn([C@@H]2O[C@H](CO)[C@@H](O)[C@H]2O)c(=O)n1` [5-azacytidine], the total cell number was -2.67.
As for `Nc1ncn([C@@H]2O[C@H](CO)[C@@H](O)[C@H]2O)c(=O)n1` [Azacitidine], the total cell number is -1.65.
`CC(COc1ccccc1)N(CCCl)Cc1ccccc1` (centres undefined) [Phenoxybenzamine HCl] yielded a total cell number of 0.335.
`CCSC(=N)N` [S-Ethylisothiourea hydrobromide] showed a total cell number of -0.322.
The figure for `CC(=O)c1ccc(S(=O)(=O)NC(=O)NC2CCCCC2)cc1` [Acetohexamide] is 1.18; for `Clc1ccc(C(Cn2ccnc2)OCc2c(Cl)cccc2Cl)c(Cl)c1` (centres undefined) [Isoconazole nitrate] it is 8.89.
Compound `COc1ccccc1CNC1CCCNC1c1ccccc1` (centres undefined) gave a total cell number of -2.77.
In turn, `NC(=O)N1c2ccccc2C=Cc2ccccc21` [Carbamazepine] returned a total cell number of 0.271 ± 1.6.
`CCOC(=O)C1=C(C)NC(C)=C(C(=O)OCC)C1c1c(F)c(F)c(F)c(F)c1F` [Nemadipine-A] gave a total cell number of -0.654.
